The campaign covered roughly 48,000 compounds. About 550 (1.1%) were called active. Another 4% or so got no clear call; they are omitted. Cut-off read from the data, not from the text of the source: active = potency below about 15 µM; inconclusive = mostly about 16 µM to 33 µM; inactive = weaker than that. The list shows a part of the results.
Potency is the fitted concentration of half-maximal effect.

UniProt P04062, sequence (P04062 whole entry, looked up): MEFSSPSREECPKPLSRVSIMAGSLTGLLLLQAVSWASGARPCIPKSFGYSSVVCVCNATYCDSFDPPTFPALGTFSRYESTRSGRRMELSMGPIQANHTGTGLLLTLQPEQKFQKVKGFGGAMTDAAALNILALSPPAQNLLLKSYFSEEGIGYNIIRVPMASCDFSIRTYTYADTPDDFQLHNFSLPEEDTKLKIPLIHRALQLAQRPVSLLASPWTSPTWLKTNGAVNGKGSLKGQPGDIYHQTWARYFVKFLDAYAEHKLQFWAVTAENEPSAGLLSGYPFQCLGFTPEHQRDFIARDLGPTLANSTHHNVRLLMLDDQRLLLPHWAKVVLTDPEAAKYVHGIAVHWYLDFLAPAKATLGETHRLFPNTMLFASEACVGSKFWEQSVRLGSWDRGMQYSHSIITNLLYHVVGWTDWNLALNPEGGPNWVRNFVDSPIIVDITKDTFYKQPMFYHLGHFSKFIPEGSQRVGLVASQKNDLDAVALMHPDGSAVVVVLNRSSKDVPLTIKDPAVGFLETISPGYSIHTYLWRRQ

This assay has as its target Lysosomal acid glucosylceramidase (Homo sapiens) (UniProt P04062). Briefly: Glucocerebrosidase.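 Note: the screen sought inhibitors.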 Conditions: purified enzyme, resorufin glucoside fluorescence (screen aimed at inhibitors), 20 min. A digest of the protocol:
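Normal human glucocerebrosidase (0.2 nM final) was assayed with resorufin β-D-glucopyranoside (30 uM final) in 50mM citric acid/KH2PO4, 10mM sodium taurocholate, 0.01% tween-20, pH 5.9. Compounds were titrated; fluorescence (Ex 548, Em 600) read after 20 min at RT.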
`Cc1csc(N(C(=O)c2cccc(S(=O)(=O)N(C)C)c2)c2ccccc2)n1`: the Potency was inactive: > 76.9 µM.
For `CC(=O)Nc1nc(SCCCc2ccccc2)n[nH]1`, the Potency was inactive: > 76.9 µM.
For the molecule `Fc1ccc(NCc2cccnc2)cc1`, the Potency is inactive: > 76.9 µM.
For `Cc1ccc(C2CC(C(F)(F)F)n3ncc(C(=O)NCc4ccco4)c3N2)cc1` (stereo not given), the Potency was inactive: > 76.9 µM.
In the case of `CCOC(=O)N1CCC(NC(=O)C2CCC(Cn3c(=O)[nH]c4ccccc4c3=O)CC2)CC1` (stereo not given), the Potency was inactive: > 76.9 µM.
With `O=C(c1cc2c(s1)CCCCC2)N1CCN(c2ncccn2)CC1`, the Potency was inactive: > 76.9 µM.
`Cc1cc(NC(=O)c2cc3n(n2)C(C(F)(F)F)CC(c2ccco2)N3)n(-c2ccccc2)n1` (stereo not given): the Potency is inactive: > 76.9 µM.
Next, `COc1ccc(CNC(=O)CN(c2cccc(OC)c2)S(C)(=O)=O)cc1`: inactive: > 76.9 µM; `CCOC(=O)c1ccc(NC(=O)Nc2ccc(OC)c(OC)c2)cc1`: inactive: > 76.9 µM; `CCOC(=O)c1ccc(NCc2ccc3c(c2)OCO3)cc1`: inactive: > 76.9 µM.
Turning to `CC1CCCCN1S(=O)(=O)c1ccc(C(=O)Nc2nnc(-c3ccccc3Cl)o2)cc1` (stereo not given), the Potency is inactive: > 76.9 µM.
`Cc1ccc(-c2nnn(CC(=O)Nc3cccc4c3CCCC4)n2)o1`: the Potency was inactive: > 76.9 µM.
Then `CCCCOc1ccc(C(=O)O)cc1`, with inactive: > 76.9 µM.
Next, `Cn1c(SCC(=O)OC2CCCCC2)nnc1-c1ccc(S(=O)(=O)N2CCCC2)cc1`: inactive: > 76.9 µM; `Cc1nc2cc(-c3cccc(Cl)c3)nn2c(N2CCN(C(=O)c3ccco3)CC2)c1C`: inactive: > 76.9 µM; `Nc1cc(=O)[nH]c(SCc2nnc(-c3ccccc3)o2)n1`: inactive: > 76.9 µM.
As for `CCC(=O)n1nc(-c2ccccc2)nc1NCc1ccccc1`, the Potency was inactive: > 76.9 µM.
Consider `O=C(NC1CCCC1)c1c[nH]c2ccc(F)cc2c1=O`, for which the Potency is inactive: > 76.9 µM.
In the case of `COc1ccc(OC)c(S(=O)(=O)N2CCC(C(=O)N3CCc4ccccc4C3)CC2)c1`, the Potency is inactive: > 76.9 µM.
In the case of `Cn1nnnc1SCc1cccc(CSc2nnnn2C)n1`, the Potency is inactive: > 76.9 µM.
Turning to `Cc1nc(NC(C)c2ccccc2)c2oc3ccccc3c2n1` (stereo not given), the Potency is inactive: > 76.9 µM.
Next, `COCCCn1c2nc3ccccc3nc2c2c(=O)n(Cc3ccc(Cl)cc3)c(C)nc21`: inactive: > 76.9 µM.
On to `CCCCOc1cccc(C(=O)O)c1`, for which the Potency was inactive: > 76.9 µM.
Then `COc1cc(Cn2c(-c3nonc3N)nc3ccccc32)ccc1C`, with inactive: > 76.9 µM; and `COC(=O)C1CCN(C(=O)CSc2nnc(-c3ccncc3)o2)CC1`, with inactive: > 76.9 µM.

These data come from PubChem BioAssay AID360 (National Center for Advancing Translational Sciences (NCATS), 2006).
